# Laboratory results taken from paper PMC7645366 (EMBO Molecular Medicine, 2020).
# Columns and labels:
# [1] = system: S. pneumoniae T4 (type 4)
# [2] = system: S. pneumoniae D39 (type 2)
# [3] = 100 μM peptide, 3 h post‐infection
compound,measurement,setting,value
"C=C1[C@@H](C)[C@H]2[C@H](Cc3ccccc3)NC(=O)[C@]23[C@H](OC(C)=O)/C=C/[C@@](C)(O)C(=O)[C@@H](C)C/C=C/[C@H]3[C@@H]1O [CytD, cytochalasin D, reference compound]","Colonies at 100X dil, viable intracellular bacteria in DCs",[1],4 and 5
same,"Colonies at 100X dil, viable intracellular bacteria in DCs",[2],6 and 5 and 4
FTWSDGSPVSYEN [P2],"number of intracellular bacteria in DCs, T4",[1]; [3],significantly reduced
same,"Colonies at 100X dil, viable intracellular bacteria in DCs","[1]; DCs+T4, MOI 10, 3 h post‐infection, 100 μM peptide, Exp1",17
same,Viable intracellular bacteria in DCs,"[1]; DCs+T4, Exp1",1.7 CFU/ml*10^5
same,"Colonies at 100X dil, viable intracellular bacteria in DCs","[1]; DCs+T4, Exp 2",21
same,Viable intracellular bacteria in DCs,"[1]; DCs+T4, Exp 2",2.1 CFU/ml*10^5
same,"Colonies at 100X dil, viable intracellular bacteria in DCs","[1]; DCs+T4, Exp 3",19
same,Viable intracellular bacteria in DCs,"[1]; DCs+T4, Exp 3",1.9 CFU/ml*10^5
same,"Mean colonies, viable intracellular bacteria in DCs","[1]; DCs+T4, mean",19
same,"number of intracellular bacteria in DCs, D39",[2]; [3],significantly reduced
same,"Colonies at 100X dil, viable intracellular bacteria in DCs","[2]; DCs+D39, MOI 10, 3 h post‐infection, 100 μM peptide, Exp1",13
same,Viable intracellular bacteria in DCs,"[2]; DCs+D39, Exp1",2.6 CFU/ml*10^5
same,"Colonies at 100X dil, viable intracellular bacteria in DCs","[2]; DCs+D39, Exp 2",15
same,Viable intracellular bacteria in DCs,"[2]; DCs+D39, Exp 2",3 CFU/ml*10^5
same,"Colonies at 100X dil, viable intracellular bacteria in DCs","[2]; DCs+D39, Exp 3",14
same,Viable intracellular bacteria in DCs,"[2]; DCs+D39, Exp 3",2.8 CFU/ml*10^5
same,"Mean colonies, viable intracellular bacteria in DCs","[2]; DCs+D39, mean",14

# “And” between values parts separate entries of the source, which are not always exact repeats. Identical values can stand only once. Like-named read-outs stand apart in the source and are kept apart here. No end group written: not given here.
